Results reported in the supplement of paper PMC10369915.
This is one part of the list. Cut-off read from the data, not from the text of the source: active = 3.2 or more and inactive = the rest. Only a few entries rise above the background.

B1: PROS1_Y266_C267S_YF (peptide)
chain: GGFTCYSDGKK
B2: PROS1_Y266_Y266C (peptide)
chain: GGYTCCCDGKK
B3: PROS1_Y266_Y266C_YF (peptide)
chain: GGFTCCCDGKK
B4: PRPF8_Y871_P874L (peptide)
chain: LIEQAYDNLHE
B5: PRPH2_Y184_L185P (peptide)
chain: WISNRYPDFSS
B6: PRPS1_Y146_V142L (peptide)
chain: PLDNLYAEPAV
B7: PRPS1_Y311_G306R (peptide)
chain: RESVSYLFSHV
B8: PSEN1_Y154_L153V (peptide)
chain: LLVVVYKYRCY
B9: PSEN1_Y154_Y154N_YF (peptide)
chain: LLVVLNKFRCF
B10: PSEN1_Y240_F237I (peptide)
chain: LVIIKYLPEWT
B11: PSEN1_Y240_L235P (peptide)
chain: PVFIKYLPEWT
B12: PSEN1_Y256_A260V (peptide)
chain: AVISVYDLVVV
B13: PSEN1_Y315 (peptide)
chain: SKNSKYNAEST
B14: PSEN1_Y315_Y315C (peptide)
chain: SKNSKCNAEST
B15: PSG4_Y271_YF (peptide)
chain: SKNFTYIWWLN
B16: PSMA7_Y110 (peptide)
chain: EYITRYIASLK
B17: PSMB1_Y8 (peptide)
chain: SSTAMYSAPGR
B18: PSMB1_Y8_P11A (peptide)
chain: SSTAMYSAAGR
B19: PSMD9_Y70 (peptide)
chain: SDVDLYQVRTA

Molecular target: SHP2 C-SH2 domain E139D
Assay: enrichment score (SH2-bound / input frequency) (ratio); bacterial display of known human phosphotyrosine sites (pTyr-Var adds point mutants) read by sequencing; higher = stronger binding; tyrosines were phosphorylated by kinases first
Conditions: peptide library: pTyr-Var
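Note: displayed peptides selected on beads carrying the immobilized SH2 domain, with library peptides lacking any tyrosine serving as negative controls.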

Enrichment score, inactive:
B1 0.849
B2 0.571
B3 1.04
B4 0.713
B5 1.44
B6 0.878
B7 1.23
B8 2.68
B9 1.78
B11 2.01
B12 2.11
B13 0.561
B14 0.71
B15 0.971
B16 1.1
B17 0.661
B18 0.465
B19 0.716

Enrichment score, active:
B10 3.85

Molecular target: SHP2 C-SH2 domain wild-type
Assay: as above
Conditions: peptide library: pTyr-Var

Enrichment score, inactive:
B1 1.49
B2 0.926
B3 1.43
B4 0.889
B5 0.94
B6 0.953
B7 1.55
B8 2.8
B9 1.24
B11 1.89
B12 1.94
B13 0.591
B14 0.556
B15 1.02
B16 1.2
B17 0.405
B18 0.556
B19 0.69

Enrichment score, active:
B10 3.4

Molecular target: SHP2 N-SH2 domain L43F
Assay: as above
Conditions: peptide library: pTyr-Var

Enrichment score, inactive:
B1 0.948
B2 0.599
B3 1.14
B4 0.764
B5 0.957
B6 0.957
B7 1.1
B8 2.25
B9 1.33
B10 3.14
B11 2.5
B12 1.97
B13 0.48
B14 0.561
B15 0.782
B16 1.24
B17 0.437
B18 0.473
B19 0.66

Molecular target: SHP2 N-SH2 domain T42A
Assay: as above
Conditions: peptide library: pTyr-Var

Enrichment score, inactive:
B1 0.885
B2 0.619
B3 0.948
B4 0.603
B5 1.14
B6 0.797
B7 2.49
B8 2.15
B9 1.4
B10 2.46
B11 2.13
B12 1.55
B13 0.487
B14 0.637
B15 0.732
B16 0.99
B17 0.441
B18 0.377
B19 0.639

Molecular target: SHP2 N-SH2 domain T52S
Assay: as above
Conditions: peptide library: pTyr-Var

Enrichment score, inactive:
B1 0.951
B2 0.635
B3 0.813
B4 1.05
B5 1.09
B6 0.941
B7 1.06
B8 3.01
B9 1.2
B10 3.17
B11 2.15
B12 1.96
B13 0.362
B14 0.614
B15 0.774
B16 0.926
B17 0.406
B18 0.383
B19 0.667

Molecular target: SHP2 N-SH2 domain wild-type
Assay: as above
Conditions: peptide library: pTyr-Var

Enrichment score, inactive:
B1 1.33
B2 1.12
B3 1.31
B4 0.591
B5 1.08
B6 0.67
B7 1.25
B8 1.49
B9 1.4
B10 3.01
B11 1.85
B12 1.89
B13 0.608
B14 0.625
B15 0.857
B16 0.992
B17 0.533
B18 0.521
B19 0.608
